The list shows a part of the results. At the low end of the ranking the order means little.

The assay deals with T1, GST-Rok (full length) (UniProt O34857).
T1 sequence: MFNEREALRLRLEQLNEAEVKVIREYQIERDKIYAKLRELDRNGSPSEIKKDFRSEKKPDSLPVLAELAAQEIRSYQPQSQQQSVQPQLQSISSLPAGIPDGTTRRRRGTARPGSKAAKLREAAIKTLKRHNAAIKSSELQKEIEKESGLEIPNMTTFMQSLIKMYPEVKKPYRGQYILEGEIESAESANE
Kind of assay: protein binding microarray.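 Further: rank score from −0.5 (least bound) to 0.5 (best bound).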 As to conditions: Rok is a gene silencer of Bacillus subtilis; high values mean tight binding; most listed sequences are background and not binding sites; double strand, one strand shown.
Sequence CGGAAACG had a binding signal of -0.261 E-score.
The same measure for CGAGAGCC: -0.275 E-score; for CAAACTAC: 0.43 E-score; for AGTACCCG: -0.0861 E-score.
The sequence CTAGCAAC registered a binding signal of 0.213 E-score.
The value for ACAAGCAG was 0.0145 E-score; that for AACTCCTG was -0.0126 E-score; that for AGCTGCCA was -0.0914 E-score.
The value for CTCCCACC was -0.26 E-score.
Sequence AGAGATCC came in with a binding signal of -0.129 E-score.
In turn, GCCAGTAC had a binding signal of -0.0694 E-score.
The value for AAAGTCAG was -0.0785 E-score.
CGGTTTAA gave a binding signal of 0.0328 E-score.
On to GCCCACAC, for which the binding signal was -0.235 E-score.
The value for CTGATTTA was 0.0978 E-score; that for TCCGCAAA was -0.068 E-score; that for CCATTCAG was -0.0389 E-score.
In turn, AAGGTCCC yielded a binding signal of -0.396 E-score.
The same measure for TAGCACAA: 0.227 E-score.
The same measure for GGTACTGA: 0.0347 E-score.
The value for CTGGTTTC was -0.0307 E-score; that for GTTGTCGA was -0.0235 E-score; that for GTCATAAC was -0.163 E-score.
As to CCGATCAG, the binding signal came to 0.0852 E-score.
The same measure for CGCTGTGC: -0.237 E-score.
AGCCTGGG came in with a binding signal of -0.187 E-score.
The value for TTGGCCAA was -0.102 E-score; that for GCTTCAAC was 0.127 E-score; that for AACAGGGT was -0.0695 E-score.
CCTTGATA came in with a binding signal of 0.0752 E-score.
The same measure for GACGAGCC: -0.315 E-score; for AAGCCAAT: 0.0144 E-score.
The value for AGACGTCA was -0.116 E-score; that for AGTGCCAT was -0.0363 E-score.
On to GAAAACGA, for which the binding signal was -0.0786 E-score.
The same measure for ACAAAACT: 0.085 E-score.
AATCCGTC: the binding signal was 0.0116 E-score.
CTCACCGC came in with a binding signal of -0.203 E-score.
In turn, ACGCCGAG gave a binding signal of -0.303 E-score.
As for AGGGTATG, the binding signal is -0.131 E-score.
As to ATCGCGCG, the binding signal is 0.192 E-score.
The same measure for CCTAAGGA: -0.225 E-score.
The value for GCGAAGTA was 0.155 E-score.
The value for AAAAATGC was 0.00513 E-score.
Regarding CAGATATC, the binding signal amounted to 0.129 E-score.
AGCAAATA gave a binding signal of 0.185 E-score.
AGCGTCGG displayed a binding signal of -0.0913 E-score.
The same measure for AGACGGGG: -0.403 E-score.
The value for AGGATGGA was -0.253 E-score; that for CTCAAGAG was -0.143 E-score; that for ATTGCTCA was 0.079 E-score.
The same measure for TCGCTGCA: -0.115 E-score; for GGGGAGGA: -0.408 E-score.
Turning to CCCGCCAA, the binding signal is -0.27 E-score.
As for AAAACCTA, the binding signal came out at 0.255 E-score.
ACCCGCCT came in with a binding signal of -0.36 E-score.
The same measure for CGTACGGA: -0.12 E-score.
The value for AGGCTGAG was -0.126 E-score.
The same measure for CCGATACC: -0.0548 E-score; for GACTCCCC: -0.416 E-score.
Turning to CCGCGTAC, the binding signal is -0.0781 E-score.
For CGATTAAC, the binding signal is -0.11 E-score.
The value for GCAAGTCC was -0.149 E-score; that for GTGTGTTA was 0.121 E-score.
The value for CACTGAAA was -0.128 E-score; that for CGCGCAAC was -0.16 E-score; that for CTGCAGGA was -0.3 E-score.
The value for ACCGCACC was -0.27 E-score; that for AATCCGAG was 0.139 E-score; that for CGAGAGAG was -0.208 E-score.
Take ACATCACC: the binding signal was -0.126 E-score.
The same measure for ACGACAGC: -0.179 E-score.
The same measure for ATTAGATG: 0.22 E-score.
With ACCACATG, the binding signal came out at 0.0989 E-score.
In the case of ACCCGTAC, the binding signal is -0.0166 E-score.
The same measure for AAGGTGCG: -0.306 E-score; for CGGCCGGC: -0.253 E-score.
ACCCTTGA returned a binding signal of -0.112 E-score.
The same measure for GATTAGGA: 0.0758 E-score.
The same measure for CCGGGGTC: -0.422 E-score; for ATGCCCTG: -0.134 E-score.
For CCTCCATC, the binding signal is -0.226 E-score.
The same measure for ACGCTAAT: 0.216 E-score; for GCTAACGA: 0.123 E-score; for GGGAATTA: 0.106 E-score.
The same measure for AAATAGGA: 0.12 E-score; for ATGGCAAG: 0.0231 E-score.
Turning to GACTCGTA, the binding signal was -0.0752 E-score.
The value for ACAGTTTA was 0.102 E-score.
The sequence GTGCGGAA registered a binding signal of -0.0982 E-score.
The same measure for TCACACGA: -0.0132 E-score.
Take TACTAACA: the binding signal stood at 0.272 E-score.
The same measure for AGCATCCG: -0.148 E-score; for ATGGGTGG: -0.0108 E-score.
The same measure for CGCTTGGC: -0.223 E-score.
The value for ATTGCACG was 0.0595 E-score; that for CCTCGCAC was -0.252 E-score; that for CTAATACC was 0.179 E-score.
For AAAAAAGC, the binding signal is -0.0757 E-score.
The sequence AGCCAAAC had a binding signal of 0.0694 E-score.
The sequence CAATACTG returned a binding signal of -0.0136 E-score.
The same measure for ATATAACA: 0.22 E-score.
Take GAACTGAC: the binding signal is -0.0175 E-score.
The value for CAACCCCC was -0.447 E-score; that for AGGGGGGG was -0.437 E-score.
The same measure for AGTCCCAC: 0.0311 E-score.
For AACAGTGC, the binding signal was -0.0608 E-score.
As to ATCCCGCC, the binding signal was -0.114 E-score.
The value for AAGTAATG was 0.118 E-score; that for ACAGCGTC was -0.21 E-score.
The value for CACAAACG was 0.0573 E-score.
The sequence CTGAGACA returned a binding signal of -0.149 E-score.
ATAGGTAC displayed a binding signal of 0.219 E-score.
In the case of CCGCAACG, the binding signal was -0.17 E-score.
The value for AGGCGCAG was -0.161 E-score.
The value for CTAACACA was -0.123 E-score.
Take AACGTCAG: the binding signal was -0.236 E-score.
The value for CGAAAACG was -0.18 E-score.
The same measure for CCGAAGCA: -0.0409 E-score; for CGTTGGAG: -0.198 E-score; for ATCTAGCA: 0.339 E-score.
For CAGGTACG, the binding signal is 0.00491 E-score.
The same measure for ACGAGAGA: -0.0139 E-score; for CTATCTAA: 0.264 E-score.
The same measure for AGGGCTAG: -0.123 E-score; for ACCGCGAT: 0.159 E-score.
The value for CACTGTGG was -0.125 E-score.
GAGCCCTC: the binding signal was -0.37 E-score.
For the sequence AATCGGCG, the binding signal is -0.0837 E-score.
The same measure for GCAGTTTA: 0.0849 E-score; for CGGTTTGA: 0.0298 E-score.
The value for CCATTCAC was 0.048 E-score.
The value for ACATATCG was 0.262 E-score.
With ATCTTTGG, the binding signal is -0.0492 E-score.
Sequence CCTAAGAG registered a binding signal of -0.0999 E-score.
The same measure for AGCGTGGG: -0.179 E-score.
The value for CCAAAACG was -0.128 E-score; that for GTACGCTA was 0.252 E-score; that for AGTCAACG was -0.0694 E-score.
The value for ACCTTTCT was 0.114 E-score; that for ATCCATTG was 0.0941 E-score.
For AGATTCTG, the binding signal worked out at 0.114 E-score.
The same measure for ATTTTCCC: -0.0469 E-score.
The same measure for AATGCACC: -0.123 E-score; for CGAAATGC: -0.0235 E-score.
In the case of AAGGAACT, the binding signal was -0.0194 E-score.
The same measure for CAACAAGA: -0.0944 E-score; for AACGCGAG: -0.0399 E-score.
Sequence ATAGGTAA had a binding signal of 0.223 E-score.
On to CACCGCCG, for which the binding signal is -0.143 E-score.
The same measure for CTAGGAGC: 0.135 E-score.
In turn, GTTAGGGA gave a binding signal of -0.122 E-score.
The sequence ATTGCGCA returned a binding signal of -0.0992 E-score.
The value for AAGTAGTA was 0.332 E-score; that for ACCGCGGG was -0.291 E-score.
The value for CATGACAG was -0.0742 E-score; that for CAGGACTA was -0.0553 E-score; that for CCATGACG was -0.162 E-score.
With CGAGGGAC, the binding signal is -0.174 E-score.
TCCCAGCA came in with a binding signal of -0.184 E-score.
The same measure for CGTCTATC: -0.119 E-score; for ATTTGTCG: 0.155 E-score.
Sequence CGAGCTGA yielded a binding signal of -0.121 E-score.
The same measure for AAGGACGG: -0.151 E-score; for AGTGGACG: -0.211 E-score.
In turn, CCGTATGA registered a binding signal of 0.00293 E-score.
As to TCTATTCA, the binding signal turned out to be 0.0926 E-score.
The same measure for CTTTCTAC: 0.444 E-score; for AGCTGGAC: -0.285 E-score.
In turn, ACATCTGC displayed a binding signal of 0.16 E-score.
CCAAGGTA gave a binding signal of 0.0533 E-score.
ATGGGAGC came in with a binding signal of -0.257 E-score.

These data come from article PMC6212790.
